According to US20200129582A1, “NOVEL PEPTIDES AND PEPTIDOMIMETICS” (UNIVERSITY OF AUCKLAND, priority 2016, published 2020):

Biological target: T1, hemichannel-mediated ATP release from hCMVEC cells (Homo sapiens, UniProt P17302)
T1 construct: endogenous in cells; host or cells: hCMVEC (human cerebral microvascular endothelial cells)
Experiment: In vitro ischemia injury ATP release assay (single alanine substituted and truncated peptides)
Format: cell-based
Settings: 100 μM, FIG. 3
Procedure: The human cerebral endothelial cells (hCMVEC) were plated at a density of 0.025×10^6 cells per well in a collagen-coated 12-well plate (1 μg/cm^2) a day prior to the experiment. Cells were incubated in culture medium overnight. Hypoxic, acidic, ion-shifted Ringer injury solution that mimics ionic concentrations and acid-base shifts of the interstitial space in hypoxic-ischemic brains (Bondarenko and Chesler, 2001, […]) was used to trigger hemichannel opening. The injury solution contained (in mM): 38 NaCl, 13 NaHCO3, 3 Na-gluconate, 65 K-gluconate, 38 NMDG-Cl, 1 NaH2PO4, and 1.5 MgCl2. The injury solution was bubbled in 95% N2, 5% CO2 gas (20 L/min) for 5 minutes and pH adjusted to 6.6 before use. The standard ringer solution contained (in mM): 124 NaCl, 3 KCl, 26 NaHCO3, 26 NaHCO3, 1 NaH2PO4, 1.3 CaCl2, 1.5 MgCl2, and 10 Glucose, and pH adjusted to 7.4 before use (Bondarenko and Chesler, 2001). In the ischemia injury model, hCMVEC cells were incubated for 2 hours in 500 μL injury solution+/−Peptide5 (100 μM) (O'Carroll et al., 2008, Cell communication & adhesion 15:27-42; Danesh-Meyer et al., 2012, Brain: a journal of neurology 135:506-520; Davidson et al., 2012, Annals of neurology 71:121-132; Davidson et al., 2013, Experimental neurology 248:301-308; Davidson et al., 2014, PloS one 9:e96558; Davidson et al., 2015, J Cereb Blood Flow Metab), or +/−extracellular loop sequences (Table 5), or modified peptides (Table 2, 3) dissolved in injury solution (500 μL) with a final concentration of 100 μM. For negative control, hCMVEC cells were incubated only in 500 μL standard ringer solution for 2 hours. For positive control, hCMVEC cells were incubated only in 500 μL […] for 2 hours. All incubations were conducted at 37° C. in 95% O2 and 5% CO2. At the end of each experiment, samples were removed and immediately placed on ice. The concentration of ATP in the samples was determined using a Luciferin/luciferase bioluminescence reaction (ATP Determination Kit, Molecular Probes) and detected using a luminescence plate reader (VICTOR X, Perkin Elmer #2030-0010). Standard curves were generated in each experiment from an ATP standard (0 to 500 nM) to convert bioluminescence units to ATP concentration. […] The data is presented as mean±standard error relative to the injury or injury-reperfusion positive control. Statistically significant differences between samples were tested using one-way analysis of variance and Tukey's multiple comparisons test.
Peptides listed in table 5 and 2 were assessed using the ischemia injury model in hCMVEC cells as described above, and the medium was collected for ATP release measurement.
The human cerebral endothelial cells (hCMVEC) were plated at a density of 0.025×10^6 cells per well in a collagen-coated 12-well plate (1 μg/cm^2) a day prior to the experiment. Cells were incubated in culture medium overnight. Hypoxic, acidic, ion-shifted Ringer injury solution that mimics ionic concentrations and acid-base shifts of the interstitial space in hypoxic-ischemic brains (Bondarenko and Chesler, 2001) was used to trigger hemichannel opening. The injury solution contained (in mM): 38 NaCl, 13 NaHCO3, 3 Na-gluconate, 65 K-gluconate, 38 NMDG-Cl, 1 NaH2PO4, and 1.5 MgCl2. The injury solution was bubbled in 95% N2, 5% CO2 gas (20 L/min) for 5 minutes and pH adjusted to 6.6 before use. The standard ringer solution contained (in mM): 124 NaCl, 3 KCl, 26 NaHCO3, 26 NaHCO3, 1 NaH2PO4, 1.3 CaCl2, 1.5 MgCl2, and 10 Glucose, and pH adjusted to 7.4 before use (Bondarenko and Chesler, 2001).

Molecule	ATP release compared to injury control (in words)	ATP release compared to native Peptide5 (in words)
ADCFLSRPTEKT [Ala-1]	not significantly different	–
VACFLSRPTEKT [Ala-2]	–	significantly different to native Peptide5
VDAFLSRPTEKT [Ala-3]	–	significantly different to native Peptide5
VDCALSRPTEKT [Ala-4]	not significantly different to the injury control	–
VDCFASRPTEKT [Ala-5]	–	significantly different to native Peptide5
VDCFLARPTEKT [Ala-6]	not significantly different to the injury control	no significant differences
VDCFLSAPTEKT [Ala-7]	–	significantly different to native Peptide5
VDCFLSRATEKT [Ala-8]	–	significantly different to native Peptide5
VDCFLSRPTEAT [Ala-11]	–	significantly different to native Peptide5

Same assay, conditions: 100 μM, FIG. 4

Molecule	ATP release compared to injury control (in words)	ATP release compared to native Peptide5 (in words)
CFLSRPTEKT [mod-1]	significantly different to the injury control	not significantly different to native peptide5
LSRPTEKT [mod-2]	not significantly different to the injury control	significantly greater ATP release
VDCFLS [mod-6]	not significantly different to the injury control	significantly greater ATP release
VDCFLSRP [mod-5]	not significantly different to the injury control	significantly greater ATP release
VDCFLSRPTE [mod-4]	not significantly different to the injury control	significantly greater ATP release

Same assay, conditions: 100 μM, FIG. 4, listed as Mod-1

Molecule	ATP release compared to injury control (in words)
CFLSRPTEKT [mod-1]	significantly reduced ATP release

Biological target: Connexin43 protein (human, UniProt P17302 2-382)
Experiment: cell-based or functional assay
Settings: not given

Molecule	ATP release from hCMVEC cells, % of injury control	loss of ability to inhibit ATP release compared to native Peptide5 [%]
CFLSRPTEKT [Modification 1]	49.1 % of injury control	–
LSRPTEKT [Modification 2]	–	28.4
SRPTEKT [Modification 3]	–	59.2
VDCFLSRPTE [Modification 4]	–	43.9
VDCFLSRP [Modification 5]	–	59.6
VDCFLS [Modification 6]	–	68.8

Biological target: T2, Connexin43 protein (hemichannels of hCMVEC cells) (Homo sapiens, UniProt P17302)
T2 construct: endogenous in cells; host or cells: hCMVEC (human cerebral microvascular endothelial cells)
Experiment: not given
Format: cell-based
Settings: 1:1 with Peptide5 (100 μM), FIG. 6
Procedure: (§1) Peptide5 interacting site on the Connexin43 protein was determined using a competition assay. Extracellular loop sequences (Auspep, Australia) were dissolved in miliQ H2O were at a stock concentration of 1 mM […]. Extracellular loop sequences were mixed with the native Peptide5 at 1:1 ratio (100 μM), which was left for 1 hour at room temperature prior to the experiment to allow competitive binding to occur. Following 1-hour incubation, extracellular loop sequence and peptide5 mixture was dissolved in injury solution and exposed to hCMVEC cells for 2 hours using the ischaemia-reperfusion model described above. Extracellular medium was then collected for ATP measurement.
as §1, with “interaction sites” for “interacting site”

Molecule	more effective by, in combination with Peptide5, compared to Peptide5 alone [%]
PGC ENVCY DKSFP ISHVR [EL1b]	24.8±8.8

Same assay, conditions: loop sequence mixed with Peptide5 at 1:1 ratio (100 μM), 2 hours, FIG. 6

Molecule	ATP release, % of the injury control, extracellular loop sequence in combination with Peptide5 [%]
A FRCNT QQPGC ENVCY D [EL1c]	40.1±7.0
ESAWG DEQSA FRCNT QQ [EL1a]	60.1±6.2
K RDPCP HQ [EL2b]	75.5±7.4
PGC ENVCY DKSFP ISHVR [EL1b]	29.3±5.5
